Publication PMC7492610
Results are given in words; binding and its absence hold for the method and conditions named. In cells and extracts the contact can be indirect. Some binding calls cover weakened binding; strength is not graded here. Sequences can lack the tags named with a protein.

Sequences of proteins named here, by UniProt entry; tags and fusion partners are left off.
UniProt O60260: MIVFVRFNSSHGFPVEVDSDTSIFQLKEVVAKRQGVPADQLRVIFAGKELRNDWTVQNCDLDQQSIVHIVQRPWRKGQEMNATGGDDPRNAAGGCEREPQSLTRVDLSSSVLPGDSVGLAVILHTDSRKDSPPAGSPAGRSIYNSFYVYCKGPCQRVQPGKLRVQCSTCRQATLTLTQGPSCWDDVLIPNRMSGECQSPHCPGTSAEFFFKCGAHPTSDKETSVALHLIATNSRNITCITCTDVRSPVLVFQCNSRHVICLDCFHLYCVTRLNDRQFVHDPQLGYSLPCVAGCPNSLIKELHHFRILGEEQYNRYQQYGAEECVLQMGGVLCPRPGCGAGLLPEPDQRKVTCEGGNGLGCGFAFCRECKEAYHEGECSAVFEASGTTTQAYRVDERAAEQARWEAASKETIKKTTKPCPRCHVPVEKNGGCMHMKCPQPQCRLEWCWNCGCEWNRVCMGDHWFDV

Molecular target: Flag-Parkin (UniProt O60260)
Test: co-IP; 293T cells co-transfected, 24 h, untreated or treated with CCCP (10 uM) for 12 h; lysis in 50 mM Tris-HCl pH 7.6, 150 mM NaCl, 0.5% Triton-X-100; anti-Flag agarose at 4 C overnight, washed four times with RIPA buffer; immunoblot

binding	Binder
binds	HA-MDA5 (receptor, UniProt Q9BYX4 1-1025) MSNGYSTDENFRYLISCFRARVKMYIQVEPVLDYLTFLPAEVKEQIQRTVATSGNMQAVELLLSTLEKGVWHLGWTREFVEALRRTGSPLAARYMNPELTDLPSPSFENAHDEYLQLLNLLQPTLVDKLLVRDVLDKCMEEELLTIEDRNRIAAAENNGNESGVRELLKRIVQKENWFSAFLNVLRQTGNNELVQELTGSDCSESNAEIENLSQVDGPQVEEQLLSTTVQPNLEKEVWGMENNSSESSFADSSVVSESDTSLAEGSVSCLDESLGHNSNMGSDSGTMGSDSDEENVAARASPEPELQLRPYQMEVAQPALEGKNIIICLPTGSGKTRVAVYIAKDHLDKKKKASEPGKVIVLVNKVLLVEQLFRKEFQPFLKKWYRVIGLSGDTQLKISFPEVVKSCDIIISTAQILENSLLNLENGEDAGVQLSDFSLIIIDECHHTNKEAVYNNIMRHYLMQKLKNNRLKKENKPVIPLPQILGLTASPGVGGATKQAKAEEHILKLCANLDAFTIKTVKENLDQLKNQIQEPCKKFAIADATREDPFKEKLLEIMTRIQTYCQMSPMSDFGTQPYEQWAIQMEKKAAKEGNRKERVCAEHLRKYNEALQINDTIRMIDAYTHLETFYNEEKDKKFAVIEDDSDEGGDDEYCDGDEDEDDLKKPLKLDETDRFLMTLFFENNKMLKRLAENPEYENEKLTKLRNTIMEQYTRTEESARGIIFTKTRQSAYALSQWITENEKFAEVGVKAHHLIGAGHSSEFKPMTQNEQKEVISKFRTGKINLLIATTVAEEGLDIKECNIVIRYGLVTNEIAMVQARGRARADESTYVLVAHSGSGVIEHETVNDFREKMMYKAIHCVQNMKPEEYAHKILELQMQSIMEKKMKTKRNIAKHYKNNPSLITFLCKNCSVLACSGEDIHVIEKMHHVNMTPEFKELYIVRENKALQKKCADYQINGEIICKCGQAWGTMMVHKGLDLPCLKIRNFVVVFKNNSTKKQYKKWVELPITFPNLDYSECCLFSDED
binds	HA-RIG-I (receptor, UniProt O95786 1-925) MTTEQRRSLQAFQDYIRKTLDPTYILSYMAPWFREEEVQYIQAEKNNKGPMEAATLFLKFLLELQEEGWFRGFLDALDHAGYSGLYEAIESWDFKKIEKLEEYRLLLKRLQPEFKTRIIPTDIISDLSECLINQECEEILQICSTKGMMAGAEKLVECLLRSDKENWPKTLKLALEKERNKFSELWIVEKGIKDVETEDLEDKMETSDIQIFYQEDPECQNLSENSCPPSEVSDTNLYSPFKPRNYQLELALPAMKGKNTIICAPTGCGKTFVSLLICEHHLKKFPQGQKGKVVFFANQIPVYEQQKSVFSKYFERHGYRVTGISGATAENVPVEQIVENNDIIILTPQILVNNLKKGTIPSLSIFTLMIFDECHNTSKQHPYNMIMFNYLDQKLGGSSGPLPQVIGLTASVGVGDAKNTDEALDYICKLCASLDASVIATVKHNLEELEQVVYKPQKFFRKVESRISDKFKYIIAQLMRDTESLAKRICKDLENLSQIQNREFGTQKYEQWIVTVQKACMVFQMPDKDEESRICKALFLYTSHLRKYNDALIISEHARMKDALDYLKDFFSNVRAAGFDEIEQDLTQRFEEKLQELESVSRDPSNENPKLEDLCFILQEEYHLNPETITILFVKTRALVDALKNWIEGNPKLSFLKPGILTGRGKTNQNTGMTLPAQKCILDAFKASGDHNILIATSVADEGIDIAQCNLVILYEYVGNVIKMIQTRGRGRARGSKCFLLTSNAGVIEKEQINMYKEKMMNDSILRLQTWDEAVFREKILHIQTHEKFIRDSQEKPKPVPDKENKKLLCRKCKALACYTADVRVIEECHYTVLGDAFKECFVSRPHPKPKQFSSFEKRAKIFCARQNCSHDWGIHVKYKTFEIPVIKIESFVVEDIATGVQTLYSKWKDFHFEKIPFDPAEMSK
